{"source": "PubChem BioAssay AID1476", "about": "(National Center for Advancing Translational Sciences (NCATS), 2009)", "note": "About 4,500 (2.2%) of roughly 200,000 compounds were called active. The inconclusive results got no clear call from the source; some entries with a clear call stand among them for comparison. Calls come from the whole dose curve; as a rule, active = well fitted inhibition curve with a large enough effect; inconclusive = small, poorly fitted or top-dose-only effect, or effect the other way; inactive = flat fitted curve, though single readings scatter. Potencies beside an inconclusive call are fits to weak or partial responses and may not hold up. Potency is the fitted concentration of half-maximal effect; tags give direction and shape of the fitted curve.", "data": [{"biological_target": "Cruzipain (Trypanosoma cruzi) (UniProt P25779)", "sequence (P25779 whole entry, looked up)": "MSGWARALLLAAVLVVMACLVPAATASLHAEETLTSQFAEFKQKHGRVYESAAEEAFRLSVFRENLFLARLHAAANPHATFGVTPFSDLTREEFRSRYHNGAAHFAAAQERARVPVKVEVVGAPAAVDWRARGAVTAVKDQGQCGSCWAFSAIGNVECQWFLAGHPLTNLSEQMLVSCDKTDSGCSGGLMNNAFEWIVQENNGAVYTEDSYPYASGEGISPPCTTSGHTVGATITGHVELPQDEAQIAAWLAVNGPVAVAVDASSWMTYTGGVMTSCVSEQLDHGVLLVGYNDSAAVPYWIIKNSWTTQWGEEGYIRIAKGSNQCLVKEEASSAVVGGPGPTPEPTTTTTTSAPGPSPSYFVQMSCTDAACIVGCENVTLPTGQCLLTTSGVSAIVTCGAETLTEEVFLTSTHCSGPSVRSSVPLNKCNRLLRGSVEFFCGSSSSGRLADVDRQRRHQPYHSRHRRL", "experiment": "qHTS Assay for Promiscuous and Specific Inhibitors of Cruzain (without detergent); note: nearly all actives have a fitted effect of over 40% in size;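 for max response, negative = inhibition: plate controls were enzyme without inhibitor for no effect and buffer without enzyme for full effect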", "details": "purified cruzain, Z-FR-AMC fluorescence, no detergent", "summary_of_the_method": "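Detergent-free condition (0.00005% Triton X-100) in acetate buffer pH 5.5 with DTT. 1.5 nM enzyme and compound were pre-mixed 15 min, then 2 uM Z-FR-AMC substrate added; reaction progress from fluorescence change between first and third reads (60 s).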", "values": [{"smiles": "O=[N+]([O-])c1ccc(/C=N\\N2CCN(c3ccc(Cl)cc3)CC2)cc1", "Potency": "active: 15.8 µM"}, {"smiles": "O=C(Nc1nnc2n1CCS2)c1ccc(F)cc1F", "max response, negative = inhibition": "inactive: 15.3%"}, {"smiles": "COCCN1CN=C(Nc2nc3ccccc3s2)NC1", "Potency": "active: 15.8 µM"}, {"smiles": "CC1(C)SC2C(N3C(=O)C(c4ccccc4)NC3(C)C)C(=O)N2C1C(=O)O", "note": "(stereo not given)", "Potency": "inconclusive: 25.1 µM [activator, single point]"}, {"smiles": "CC1=C(C)CS(=O)N(S(=O)(=O)c2ccccc2)C1", "note": "(stereo not given)", "max response, negative = inhibition": "inactive: -24.1%"}, {"smiles": "CCOC(=O)c1ccc(NC(=O)c2cc3sccc3n2Cc2ccc(Cl)cc2)cc1", "Potency": "active: 10 µM"}, {"smiles": "CC(=O)Nc1ccc(N(CC(O)Cn2c3ccccc3c3ccccc32)S(=O)(=O)c2ccc(C)cc2)cc1", "note": "(stereo not given)", "Potency": "inconclusive: 31.6 µM [activator, single point]"}, {"smiles": "Cc1[nH]n(-c2ccc([N+](=O)[O-])cc2)c(=O)c1C=NCCN1CCN(C(=O)c2ccc(F)cc2)CC1", "Potency": "inconclusive: 39.8 µM [activator, single point]"}, {"smiles": "FC(F)(F)c1nc2nncn2c2c1CCCCC2", "max response, negative = inhibition": "inactive: 8.09%"}, {"smiles": "CCc1nnc(NC(=O)CSc2ncnc3scc(-c4ccc(C)cc4)c23)s1", "Potency": "inconclusive: 39.8 µM [inhibitor, single point]"}, {"smiles": "CCCC(c1nnnn1CC1CCCO1)N1CCN(c2cc(Cl)ccc2C)CC1", "note": "(stereo not given)", "Potency": "inconclusive: 39.8 µM [activator, single point]"}, {"smiles": "O=C(CSC1CC(=O)N(CC(c2ccccc2)c2ccccc2)C1=O)Nc1ccc(Cl)cc1", "note": "(stereo not given)", "Potency": "inconclusive: 39.8 µM [inhibitor, single point]"}, {"smiles": "CCOC(=O)N1CCN(c2cc(=O)n(-c3ccc(OCC)cc3)c(=O)[nH]2)CC1", "Potency": "inconclusive: 12.6 µM [inhibitor, single point]"}, {"smiles": "Cc1cccc(C)c1NC(=O)CSc1nc(-c2ccco2)cc(C(F)(F)F)n1", "Potency": "inconclusive: 3.98 µM [activator, single point]"}, {"smiles": "C[N+](C)(CCCCCC[N+](C)(C)CCCN1C(=O)c2cccc3cccc(c23)C1=O)CCCN1C(=O)c2cccc3cccc(c23)C1=O", "Potency": "inconclusive: 39.8 µM [inhibitor, single point]"}, {"smiles": "O=C(Nc1ccc(Cl)cn1)c1ccc(-c2cc(Cl)ccc2Cl)o1", "Potency": "inconclusive: 20 µM [inhibitor, single point]"}, {"smiles": "Cc1cc(C)nc(SCc2nnc(SCC(=O)Nc3ccc(C)c(C)c3)n2Cc2ccco2)n1", "Potency": "inconclusive: 39.8 µM [activator, single point]"}, {"smiles": "Brc1cccc(-c2cnn3c(-c4ccccc4)cc(-c4ccccc4)nc23)c1", "Potency": "inconclusive: 5.01 µM [inhibitor, single point]"}, {"smiles": "O=C(Nc1ccc(Cl)c(C(F)(F)F)c1)C(Cc1ccccc1)NS(=O)(=O)c1ccc(Br)s1", "note": "(stereo not given)", "Potency": "active: 3.98 µM"}, {"smiles": "COC(=O)c1ccc(SCC(=O)N2CCC(C)CC2)c([N+](=O)[O-])c1", "Potency": "inconclusive: 1.26 µM [inhibitor, single point]"}, {"smiles": "COc1cc(OC)cc(C(=O)N2CC(=O)Nc3ccc(Cl)cc3C2c2ccccc2)c1", "note": "(stereo not given)", "max response, negative = inhibition": "inactive: 4.53%"}, {"smiles": "O=C(Nc1nnc2n1CCS2)c1ccccc1C(F)(F)F", "max response, negative = inhibition": "inactive: -3.27%"}, {"smiles": "CCOC(=O)c1c(-c2ccc(OC)cc2)oc2ccc(OCc3ccc(Br)cc3)cc12", "Potency": "inconclusive: 3.98 µM [inhibitor, single point]"}, {"smiles": "O=C(Cn1c(O)c(/C=C2\\C=Nc3ccccc32)sc1=O)Nc1ccc2c(c1)OCO2", "Potency": "active: 5.01 µM"}, {"smiles": "Cc1ccc(C23CC4CC(CC(C(=O)N5CCOCC5)(C4)C2)C3)cc1", "Potency": "inconclusive: 39.8 µM [activator, single point]"}, {"smiles": "COc1ccc(-c2nn(-c3ccccc3)cc2C(=O)n2nnc3ccccc32)cc1", "Potency": "active: 15.8 µM"}, {"smiles": "Cc1cccc(NC(=O)CSc2nc3ccccc3nc2N2CCOCC2)c1C", "max response, negative = inhibition": "inactive: -5.47%"}, {"smiles": "O=C1c2ccccc2C(Nc2ccc3c(c2)OCO3)N1Cc1ccc2c(c1)OCO2", "note": "(stereo not given)", "Potency": "active: 25.1 µM"}, {"smiles": "Cc1ccc(C(=O)Oc2coc(CSc3nnc(NC(=O)c4cccs4)s3)cc2=O)cc1C", "Potency": "active: 25.1 µM"}, {"smiles": "CCC(c1nnnn1Cc1cccs1)N1CCN(c2nc3ccccc3s2)CC1", "note": "(stereo not given)", "Potency": "inconclusive: 31.6 µM [inhibitor, single point]"}, {"smiles": "Cc1c(C(=O)OC(C)C)sc(NC(=O)C2c3ccccc3Oc3ccccc32)c1C(=O)OC(C)C", "Potency": "inconclusive: 3.16 µM [inhibitor, full curve]"}, {"smiles": "O=C1c2ccccc2C(=O)N1c1cccc(-c2csc(Nc3ccc4c(c3)OCO4)n2)c1", "Potency": "active: 5.01 µM"}, {"smiles": "CCOC(=O)c1cccc(NS(=O)(=O)c2cc(-c3cnc(C4CC4)o3)ccc2C)c1", "max response, negative = inhibition": "inactive: 1.01%"}, {"smiles": "COc1ccc(NC(=O)Cn2cc(C(=O)c3ccccc3)c(=O)c3cc(OC)ccc32)c(OC)c1", "max response, negative = inhibition": "inactive: 8.05%"}, {"smiles": "COc1ccc(-c2cc(C3CC3)nc3sc(C#N)c(N)c23)cc1", "max response, negative = inhibition": "inactive: -4.38%"}, {"smiles": "CCCS(=O)(=O)c1nc(S(=O)(=O)c2ccc(C)cc2)c(NCc2ccccc2Cl)s1", "Potency": "inconclusive: 39.8 µM [inhibitor, single point]"}, {"smiles": "COc1cc(-c2nnc(-c3ccncc3)o2)ccc1OCc1ccccc1", "Potency": "inconclusive: 31.6 µM [activator, single point]"}, {"smiles": "COc1cccc(Oc2nc(C)nc3c2oc2ccccc23)c1", "Potency": "inconclusive: 31.6 µM [activator, single point]"}, {"smiles": "O=C(NC1CCCc2ccccc21)c1ccc2c(c1)sc1nc(-c3ccccc3)cn12", "note": "(stereo not given)", "Potency": "inconclusive: 39.8 µM [activator, single point]"}, {"smiles": "COc1ccccc1CNC(=O)CCCN1C(=O)CSc2c1c(C)nn2-c1ccccc1", "max response, negative = inhibition": "inactive: -6.14%"}, {"smiles": "Cc1c(/C=N/NC(=O)CNc2ccccc2)c2ccccn2c1C(=O)c1ccc(Cl)cc1", "Potency": "inconclusive: 39.8 µM [inhibitor, single point]"}, {"smiles": "C=CCCCCCCCCCCCC(O)CC(O)COC(C)=O", "note": "(stereo not given) (tested in a mixture with another compound)", "Potency": "inconclusive: 39.8 µM [activator, single point]"}, {"smiles": "O=C1NN(c2ccc(F)cc2)C(=O)/C1=C\\C=C\\c1ccco1", "Potency": "inconclusive: 39.8 µM [inhibitor, single point]"}, {"smiles": "CCOCCCn1c(SCC(=O)Nc2ccc(C(N)=O)cc2)nc2ccccc2c1=O", "Potency": "inconclusive: 31.6 µM [inhibitor, single point]"}, {"smiles": "Cc1noc(NS(=O)(=O)c2ccc(N/C=C/C(=O)c3ccc4c(c3)OCO4)cc2)c1C", "Potency": "inconclusive: 7.94 µM [inhibitor, single point]"}, {"smiles": "CCCn1c2c(c(O)c(C(=O)Nc3nccs3)c1=O)CCCC2", "Potency": "inconclusive: 31.6 µM [activator, single point]"}, {"smiles": "COc1cc(OC)c(-c2cc(C(=O)NCc3ccc(F)cc3)c3c(-c4ccccc4)[nH]nc3n2)cc1OC", "Potency": "inconclusive: 15.8 µM [activator, partial curve]"}, {"smiles": "COc1ccc(-c2cc(-c3cccs3)c(C#N)c(SCC(=O)NCc3ccccc3)n2)cc1", "Potency": "active: 7.94 µM"}, {"smiles": "COc1cccc(C(=O)NC2CCN(C(=O)N3c4ccccc4Sc4ccccc43)CC2)c1", "Potency": "inconclusive: 25.1 µM [inhibitor, single point]"}, {"smiles": "Cc1ccc(CCNC(=O)CCCn2c(=O)c3ccccc3n(Cc3ccccc3C)c2=O)cc1", "max response, negative = inhibition": "inactive: -1.97%"}, {"smiles": "COc1ccc(NC(=O)COC(=O)c2c3c(nc4ccccc24)CCCC3)cc1Cl", "Potency": "inconclusive: 39.8 µM [inhibitor, single point]"}, {"smiles": "Cc1cc(-c2nc3ncccc3o2)ccc1NC(=O)c1ccccc1Br", "Potency": "inconclusive: 20 µM [activator, single point]"}, {"smiles": "N#Cc1cc2c(nc1SCc1ccccc1)CCCC2", "Potency": "inconclusive: 39.8 µM [inhibitor, single point]"}, {"smiles": "COc1ccc(C2=Nc3ccc(F)cc3NC(c3cccc(C(F)(F)F)c3)=N2)cc1", "Potency": "inconclusive: 39.8 µM [inhibitor, single point]"}, {"smiles": "CCCOc1ccc(C(=O)N(Cc2ccccc2Cl)C2CCS(=O)(=O)C2)cc1", "note": "(stereo not given)", "max response, negative = inhibition": "inactive: 6.75%"}, {"smiles": "CCc1ccc2ncc(C(=O)c3ccc(C)c(C)c3)c(N3CCC(C(N)=O)CC3)c2c1", "Potency": "inconclusive: 39.8 µM [activator, single point]"}, {"smiles": "Cc1ccc(Cl)cc1N1CCN(C(=O)Cc2c(C(=O)O)[nH]c3ccccc23)CC1", "Potency": "inconclusive: 39.8 µM [activator, single point]"}, {"smiles": "Cc1nn(C)cc1/C=N\\NC(=O)c1ccc2c(c1)c(C)c(C)n2Cc1ccccc1", "Potency": "inconclusive: 39.8 µM [activator, single point]"}, {"smiles": "CN(C)c1ccc(CNC(=O)c2ccc(Cn3c(=O)c4cccn4c4cccnc43)cc2)cc1", "max response, negative = inhibition": "inactive: -5.11%"}, {"smiles": "CCOC(=O)c1ccc(NC(=O)CSc2nnc3c4ccccc4n(CC)c3n2)cc1", "max response, negative = inhibition": "inactive: -11.4%"}, {"smiles": "COc1ccc(-c2cn3cccnc3n2)cc1NC(=O)c1ccc(Br)o1", "Potency": "inconclusive: 39.8 µM [activator, single point]"}, {"smiles": "O=c1c(-c2cccs2)nc2cncnc2n1-c1ccccc1", "max response, negative = inhibition": "inactive: -27.5%"}, {"smiles": "Cc1ccc(-c2nnc(SCC(=O)N3CCOCC3)nc2-c2ccc(C)cc2)cc1", "Potency": "inconclusive: 39.8 µM [activator, single point]"}, {"smiles": "CCOC(=O)/C(=N\\Nc1ccc(Cl)cc1)c1csc(Nc2ccccc2)n1", "Potency": "inconclusive: 10 µM [inhibitor, partial curve, poor fit]"}, {"smiles": "COCCCNC(=O)CCCn1c(SCC(=O)c2ccc(F)cc2)nc2c(sc3ccccc32)c1=O", "max response, negative = inhibition": "inactive: -8.53%"}]}]}
